Experimental data taken from the supplement of paper PMC10723795.
Counter-ions that a name gives are not always drawn. The list shows a part of the results.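 Rule for the calls: active = more than 2 SD below the DMSO mean: under 0.85 at 10 µM or 0.885 at 1 µM; inactive = the rest.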 Repeats are few or missing, and single values can be far off.

System: RPE1
Assay: nucleolar normality score relative to DMSO (fraction of DMSO control); RPE1 is a non-cancer human cell line; higher = more normal nucleoli (less nucleolar stress)
Conditions: 24 h
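Note: fixed cells immunolabelled for nucleolin and UBF, 40 image fields per well in 384-well plates, per-cell score = nucleolin nucleolar/nucleoplasm intensity ratio divided by the matching UBF ratio.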

Compound: CNC(=O)c1cccc(-c2ccc3c(N4CCOC[C@@H]4C)nc(N4CCOC[C@@H]4C)nc3n2)c1 [Vistusertib (AZD2014)]
- nucleolar normality score (1 µM): inactive: 0.983
- nucleolar normality score (10 µM): active: 0.785

Compound: CCc1cc(Nc2nccc(-c3c(-c4ccc(OC)c(C(=O)Nc5c(F)cccc5F)c4)nc4ccccn34)n2)c(OC)cc1N1CCC(N2CCN(S(C)(=O)=O)CC2)CC1
- nucleolar normality score (1 µM): inactive: 0.982
- nucleolar normality score (10 µM): inactive: 1.02

Compound: CNC(=O)c1cc(Oc2ccc(NC(=O)Nc3cc(C(C)(C)C)nn3-c3ccc4ncccc4c3)c(F)c2)ccn1 [Rebastinib (DCC-2036)]
- nucleolar normality score (1 µM): inactive: 1.02
- nucleolar normality score (10 µM): inactive: 0.86

Compound: C[C@]1(O)C[C@@H](c2nc(-c3ccc4ccc(-c5ccccc5)nc4c3)c3c(N)nccn32)C1 [Linsitinib (OSI-906)]
- nucleolar normality score (1 µM): inactive: 1.05
- nucleolar normality score (10 µM): inactive: 1.05

Compound: COc1ccc(C[C@H]2COC(=O)[C@@H]2Cc2ccc(O[C@@H]3O[C@H](CO)[C@@H](O)[C@H](O)[C@H]3O)c(OC)c2)cc1OC [Arctiin]
- nucleolar normality score (1 µM): inactive: 1.05
- nucleolar normality score (10 µM): inactive: 0.922

Compound: O=C(Nc1ccccc1-c1cn2c(CN3CCNCC3)csc2n1)c1cnc2ccccc2n1
- nucleolar normality score (1 µM): inactive: 1.03
- nucleolar normality score (10 µM): inactive: 1.04

Compound: N#Cc1cnc(Nc2cc(NC[C@H]3CNCCO3)c(C(F)(F)F)cn2)cn1
- nucleolar normality score (1 µM): inactive: 1
- nucleolar normality score (10 µM): inactive: 1

Compound: CN(C)CC(=O)Nc1ccc2[nH]c(=O)c3ccccc3c2c1
- nucleolar normality score (1 µM): inactive: 0.999
- nucleolar normality score (10 µM): inactive: 1.06

Compound: CNC(=O)c1cc(Oc2ccc(NC(=O)Nc3ccc(Cl)c(C(F)(F)F)c3)c(F)c2)ccn1 [Regorafenib (BAY 73-4506)]
- nucleolar normality score (1 µM): inactive: 1.01
- nucleolar normality score (10 µM): inactive: 1.12

Compound: Nc1nc2[nH]cnc2c(=S)[nH]1 [Thioguanine]
- nucleolar normality score (1 µM): inactive: 0.903
- nucleolar normality score (10 µM): inactive: 0.947

Compound: O=C1NC(=NCc2cccs2)S/C1=C\c1ccc2ncccc2c1
- nucleolar normality score (1 µM): inactive: 1.04
- nucleolar normality score (10 µM): inactive: 0.938

Compound: NC(=O)c1ccc(-c2nc(-c3ccc4c(c3)OCCO4)c(-c3ccccn3)[nH]2)cc1
- nucleolar normality score (1 µM): inactive: 0.987
- nucleolar normality score (10 µM): inactive: 1.09

Compound: O=C1c2c(O)cccc2C([C@@H]2O[C@H](CO)[C@@H](O)[C@H](O)[C@H]2O)c2cc(CO)cc(O)c21 (some centres undefined) [Aloin]
- nucleolar normality score (1 µM): inactive: 1.06
- nucleolar normality score (10 µM): inactive: 0.903

Compound: O=C(Nc1cccc(C(F)(F)F)c1)Nc1cc(S(=O)(=O)NC2CC2)ccc1-c1ccsc1
- nucleolar normality score (1 µM): inactive: 0.997
- nucleolar normality score (10 µM): inactive: 1.02

Compound: C=CCc1cccc(/C=N/NC(=O)CN2CCN(Cc3ccccc3)CC2)c1O
- nucleolar normality score (1 µM): inactive: 1.03
- nucleolar normality score (10 µM): inactive: 0.905

Compound: Cc1cc(O)c2c(c1)C(=O)c1cccc(O)c1C2=O [Chrysophanic Acid]
- nucleolar normality score (1 µM): inactive: 0.985
- nucleolar normality score (10 µM): inactive: 0.86

Compound: O=c1ccc2cc(O)c(O)cc2o1 [Esculetin]
- nucleolar normality score (1 µM): inactive: 0.976
- nucleolar normality score (10 µM): inactive: 0.866

Compound: COCCNCc1ccc(-c2cc3nccc(Oc4ccc(NC(=O)C5(C(=O)Nc6ccc(F)cc6)CC5)cc4F)c3s2)nc1 [Sitravatinib (MGCD516)]
- nucleolar normality score (1 µM): inactive: 0.974
- nucleolar normality score (10 µM): inactive: 1.02

Compound: Cc1c[nH]c(C=C2C(=O)Nc3ccccc32)c1CCC(=O)O
- nucleolar normality score (1 µM): inactive: 0.964
- nucleolar normality score (10 µM): inactive: 1.04

Compound: O=S(=O)(NCCSSCCNS(=O)(=O)c1cc(Cl)ccc1Cl)c1cc(Cl)ccc1Cl
- nucleolar normality score (1 µM): inactive: 0.987
- nucleolar normality score (10 µM): inactive: 1

Compound: CC[C@]1(O)C[C@H]2CN(CCc3c([nH]c4ccccc34)[C@@](C(=O)OC)(c3cc4c(cc3OC)N(C=O)[C@H]3[C@@](O)(C(=O)OC)[C@H](OC(C)=O)[C@]5(CC)C=CCN6CC[C@]43[C@@H]65)C2)C1 [Vincristine sulfate]
- nucleolar normality score (1 µM): inactive: 0.945
- nucleolar normality score (10 µM): inactive: 0.965

Compound: CCOc1cc2ncc(C#N)c(Nc3ccc(F)c(Cl)c3)c2cc1NC(=O)/C=C/CN(C)C [Pelitinib (EKB-569)]
- nucleolar normality score (1 µM): active: 0.814
- nucleolar normality score (10 µM): inactive: 0.876

Compound: C=C1C(=O)[C@]23[C@H](O)[C@H]1CC[C@H]2[C@@]12CO[C@]3(O)[C@@H](O)[C@@H]1C(C)(C)CC[C@@H]2O [Oridonin]
- nucleolar normality score (1 µM): inactive: 0.89
- nucleolar normality score (10 µM): active: 0.778

Compound: COc1ccc(C2=NC(c3ccc(Cl)cc3)C(c3ccc(Cl)cc3)N2C(=O)N2CCNC(=O)C2)c(OC(C)C)c1 (centres undefined) [Nutlin-3b]
- nucleolar normality score (1 µM): inactive: 1.02
- nucleolar normality score (10 µM): inactive: 1.06

Compound: CCN(CC)CCNC(=O)c1c(C)[nH]c(/C=C2\C(=O)Nc3ccc(F)cc32)c1C [Sunitinib]
- nucleolar normality score (1 µM): inactive: 0.95
- nucleolar normality score (10 µM): inactive: 0.943

Compound: Cc1[nH]c2ccccc2c1CCNC(=O)c1cccs1
- nucleolar normality score (1 µM): inactive: 0.979
- nucleolar normality score (10 µM): inactive: 1.05

Compound: N#Cc1c(O)c2c(-c3ccc(-c4ccccc4O)cc3)csc2[nH]c1=O
- nucleolar normality score (1 µM): inactive: 0.998
- nucleolar normality score (10 µM): inactive: 0.884

Compound: Cc1nc2ccc(-n3ncc(C(=O)c4cc5ccccc5[nH]4)c3N)cc2[nH]1
- nucleolar normality score (1 µM): inactive: 1.01
- nucleolar normality score (10 µM): inactive: 1.07

Compound: O=c1cc(-c2cccc3c2Sc2ccccc2S3)oc(N2CCOCC2)c1
- nucleolar normality score (1 µM): inactive: 1.11
- nucleolar normality score (10 µM): inactive: 1.09

Compound: O=C(C=Cc1ccccc1)NC(NC(=S)Nc1ccc(Cl)cc1)C(Cl)(Cl)Cl (centres undefined)
- nucleolar normality score (1 µM): inactive: 0.942
- nucleolar normality score (10 µM): inactive: 1.02

Compound: CC(C)(CNC(=O)c1cccc(-c2noc(C(F)(F)F)n2)c1)c1coc(-c2ccccc2)n1
- nucleolar normality score (1 µM): inactive: 1.05
- nucleolar normality score (10 µM): inactive: 1.07

Compound: Nc1nc(Cl)nc2c1ncn2[C@H]1C[C@H](O)[C@@H](CO)O1 [Cladribine]
- nucleolar normality score (1 µM): inactive: 0.905
- nucleolar normality score (10 µM): inactive: 1.01

Compound: Cc1nc(Nc2cnn(C3CCNCC3)c2)nc2c1N(C)C(=O)c1cc3ccccc3cc1N2C
- nucleolar normality score (1 µM): inactive: 1.01
- nucleolar normality score (10 µM): inactive: 1.01

Compound: CN(N=O)C(=O)NC1C(O)OC(CO)C(O)C1O (centres undefined) [Streptozotocin (STZ)]
- nucleolar normality score (1 µM): inactive: 0.988
- nucleolar normality score (10 µM): inactive: 1.03

Compound: COc1ccccc1C(=O)Nc1cc2c(cc1N1CCCC1)n(C)c(=O)n2C
- nucleolar normality score (1 µM): inactive: 0.978
- nucleolar normality score (10 µM): inactive: 1.04

Compound: C[C@]12CCC(=O)C=C1CC[C@@H]1[C@@H]2[C@@H](O)C[C@@]2(C)[C@H]1CC[C@]2(O)C(=O)CO [Hydrocortisone]
- nucleolar normality score (1 µM): inactive: 0.976
- nucleolar normality score (10 µM): inactive: 1.05

Compound: C=CC(=O)Nc1cccc(C)c1Nc1ncc2cc(-c3c(Cl)c(OC)cc(OC)c3Cl)ccc2n1
- nucleolar normality score (1 µM): inactive: 1.1
- nucleolar normality score (10 µM): inactive: 1.16
